Molecular target: T1, BCMA (UniProt Q02223 1-184, limits assumed)
T1 sequence (looked up): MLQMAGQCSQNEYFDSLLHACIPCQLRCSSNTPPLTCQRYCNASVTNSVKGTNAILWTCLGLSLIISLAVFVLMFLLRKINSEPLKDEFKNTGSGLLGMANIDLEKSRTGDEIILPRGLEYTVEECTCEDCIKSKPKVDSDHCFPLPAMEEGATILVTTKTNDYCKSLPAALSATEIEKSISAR
Assay: cell-based or functional assay

B1: NG2BB21 (bispecific antibody, human IgG1, kappa)
heavy: EVQLVQSGAEVKKPGESLKISCKGSGYSFTSYWIGWVRQMPGKGLEWMGIIYPGDSYTRYSPSFQGQVTISADKSISTAYLQWSSLKASDTAMYYCARGGVSASGNYRALDYWGQGTLVTVSSASTKGPSVFPLAPSSKSTSGGTAALGCLVKDYFPEPVTVSWNSGALTSGVHTFPAVLQSSGLYSLSSVVTVPSSSLGTQTYICNVNHKPSNTKVDKKV[human IgG1 Fc skipped]GSEGKSSGSGSESKSTGGSEIVLTQSPGTLSLSPGERATLSCRASQSISSSFLTWYQQKPGQAPRLLIYGASSRATGIPDRFSGGGSGTDFTLTISRLEPEDFAVYYCQHYGSSPMYTFGQGTKLEIKGGSEGKSSGSGSESKSTGGS[about 100 residues skipped]DEGYSSGHYYGMDVWGQGTTVTVSS
light: [about 200 residues skipped]
IC50 for BsAb cytotoxicity, H929/GFP target cells with PBMC effectors: 1.24 nM

Reference: patent publication US20240182582A1 (Janssen / Centocor, published 2024)
